Source: paper PMC4336329 (PLoS ONE, 2015)
Hit rate of the full screen: of about 310,000 compounds, about 14,000 (4.5%) showed an effect of 50% or more. Effects have a minus sign here. This is one part of the list.

molecular target: human ether-à-go-go-related gene (hERG) potassium channel (human, UniProt Q12809); experiment: primary screen, population patch clamp on CHO cells stably expressing hERG
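Also: peak tail current of the secondary pulse compared with the same well before compound.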

Chain of human ether-à-go-go-related gene (hERG) potassium channel (Q12809 whole entry, looked up): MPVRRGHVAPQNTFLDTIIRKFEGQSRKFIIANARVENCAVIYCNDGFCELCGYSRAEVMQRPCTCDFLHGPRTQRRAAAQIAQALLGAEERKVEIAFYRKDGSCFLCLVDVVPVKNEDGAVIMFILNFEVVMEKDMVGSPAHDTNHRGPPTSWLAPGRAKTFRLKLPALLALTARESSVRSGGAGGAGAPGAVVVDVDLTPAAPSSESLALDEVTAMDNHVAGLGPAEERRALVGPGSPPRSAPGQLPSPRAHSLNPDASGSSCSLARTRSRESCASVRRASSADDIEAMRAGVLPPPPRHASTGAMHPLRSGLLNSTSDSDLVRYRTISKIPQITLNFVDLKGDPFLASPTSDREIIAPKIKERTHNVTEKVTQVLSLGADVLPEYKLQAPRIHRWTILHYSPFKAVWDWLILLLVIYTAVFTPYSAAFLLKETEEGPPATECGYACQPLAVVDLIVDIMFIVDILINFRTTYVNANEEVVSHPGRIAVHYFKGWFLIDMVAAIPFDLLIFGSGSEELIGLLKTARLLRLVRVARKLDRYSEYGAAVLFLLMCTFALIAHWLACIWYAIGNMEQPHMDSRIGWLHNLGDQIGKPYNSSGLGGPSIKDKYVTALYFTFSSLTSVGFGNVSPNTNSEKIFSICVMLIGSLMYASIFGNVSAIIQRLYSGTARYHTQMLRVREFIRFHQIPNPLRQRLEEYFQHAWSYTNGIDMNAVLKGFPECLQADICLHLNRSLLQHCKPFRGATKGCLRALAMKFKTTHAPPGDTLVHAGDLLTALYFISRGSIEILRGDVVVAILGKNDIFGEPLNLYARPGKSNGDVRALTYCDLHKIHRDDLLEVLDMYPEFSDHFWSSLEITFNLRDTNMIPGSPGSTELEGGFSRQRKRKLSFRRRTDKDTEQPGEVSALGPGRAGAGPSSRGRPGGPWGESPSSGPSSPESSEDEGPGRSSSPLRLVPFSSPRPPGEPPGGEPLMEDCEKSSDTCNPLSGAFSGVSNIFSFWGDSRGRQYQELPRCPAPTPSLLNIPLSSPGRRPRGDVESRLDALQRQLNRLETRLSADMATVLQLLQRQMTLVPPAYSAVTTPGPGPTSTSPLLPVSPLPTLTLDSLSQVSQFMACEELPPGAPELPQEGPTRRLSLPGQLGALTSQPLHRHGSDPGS

Compound	hERG current change (%, negative = inhibition) at 10uM [%]
Cc1ccccc1N1CCN(Cc2c[nH]c3ccccc23)CC1	-62.1
COc1cc(C(=O)N[C@@H](Cc2c[nH]c3ccccc23)C(=O)O)cc(OC)c1OC	-53.1
COc1ccc(S(=O)(=O)NCc2cccnc2)cc1C(=O)N1CCCCC1	10.5
COc1ccc(NS(=O)(=O)c2cccc(C(=O)NCc3ccccc3CN3CCCC3)c2)cc1	-64.4
Cc1cn(C2OC[C@@H](O)[C@@H]2CO)c(=O)[nH]c1=O (some centres unmarked)	12.3
CCOC(=O)c1cccc(Nc2ncnc3ccc(C)cc23)c1	-59.3
O=C(O)CNC(=O)c1nc(-c2ccccc2)n(-c2ccccc2)n1	22.9
O=C(NCc1ccc(F)cc1)C1C2C=CC3(CN(Cc4cccnc4)C(=O)C13)O2 (centres unmarked)	3.59
CCc1ccc(NC(=O)[C@H](C)NC(=O)C2CCN(C(=O)[C@@H](N)CC(C)C)CC2)cc1.Cl	11
CSc1cccc(NC(=O)Nc2ccc(Cl)cc2)c1	-11
O=C(COc1ccc(S(=O)(=O)N2CCOCC2)cc1Cl)NCc1ccccn1	7.96
C#CCOCCOCCOCCNc1nc(N2CCN(C(=O)CCCCCCCCCCNC(=O)[C@@H](CCC(=O)O)n3cc(CCCCCN)nn3)CC2)nc(N2CCN(C(=O)CCCCCCCCCCNC(=O)[C@@H](CCC(=O)O)n3cc(CCCCCN)nn3)CC2)n1	-9.3
Nc1nc2ccc([N+](=O)[O-])c(N)c2s1	-21
O=C(O)c1cn2c3c(ccc(Cl)c3c1=O)OCC2	10.9
O=C(Cc1cccc2ccccc12)Nc1ccccc1Br	18.9
CNS(=O)(=O)c1cccc(C(=O)NCC2CCCCC2)c1	20.4
Cc1cc(=O)oc2cc(OCC(=O)N3CCN(c4ccccc4)CC3)c(Cl)cc12	16.6
COc1ccc(C2NC(=O)NC(C)=C2[N+](=O)[O-])cc1OC (centres unmarked)	-5.73
Cc1ccc(CCCNC(=O)C2CCC(=O)N(Cc3cccc(F)c3)C2)cc1 (centres unmarked)	-53.4
COc1ccc([C@H]2CC(=O)C=C(c3ccc(C)cc3)C2)cc1	7.22
Cc1cc(NS(=O)(=O)c2ccc(NC(=O)Nc3cccc(C(F)(F)F)c3)cc2)no1	17.3

Compound	hERG current change (%, negative = inhibition) at 10uM [%]
O=C(Cc1cc(C(=O)O)c2ccccc2n1)Nc1ccccc1	28.6
COc1ccc2ccccc2c1CN1CCN(C)CC1	-8.69
CN(C)c1ccc(NC(=O)CN2C(=O)CC(c3ccccc3)=Nc3ccccc32)cc1	5.99
Cc1ccc(S(=O)(=O)Nc2ccc(Br)cc2/C=N/n2cnnc2)cc1	-4.21
O=C(CC1C(=O)NCCN1Cc1cccc(Oc2ccccc2)c1)NCCc1ccncc1 (centres unmarked)	-22.1
O=C1CCCC2C3CCCN4CCCC(CN12)C34 (centres unmarked)	16.3
CCOc1ccc(NC(=O)N[C@@H](Cc2ccccc2)C(=O)O)cc1	22.6
Cc1ccc2[nH]c(CSc3ccccc3)cc(=O)c2c1	14.2
O=C(O)C(=O)O.OC(CNCCc1ccc(C(F)(F)F)cc1)COC(c1ccccc1)c1ccccc1 (centres unmarked)	-34.7
Cc1ccc(N/C=C2\C(=O)N(c3ccc(F)cc3F)C(c3cccnc3)S2(=O)=O)cc1 (centres unmarked)	1.37
CCOc1ccc(CCNC(=O)C2CCN(c3nn4c(=O)cc(C)nc4s3)CC2)cc1OCC	-8.23
Cc1ccc(-n2nc3c(c2NC(=O)c2cccs2)CS(=O)(=O)C3)cc1C	-47.7
CN(Cc1cn(C)nc1-c1ccc(Oc2ccccc2)cc1)Cc1cnc2ccccn12	-54
CC(=O)Nc1ccc(NC(=O)C(C)OC(=O)CNC(=O)c2cccs2)cc1 (centres unmarked)	15.3
O=C(/C=C/c1ccc(S(=O)(=O)NCc2ccco2)cc1)N1CCN(c2ccccc2)CC1	7.23
CCOc1ccc(CCNC(=O)COC(=O)C2=NNC(=O)CC2)cc1OCC	2.49
Cn1cccc1C(=S)N=P(C1CCCCC1)(N1CCOCC1)N1CCOCC1	-0.0981
O=c1c2ccccc2n2c(-c3ccc(F)cc3)nnc2n1Cc1ccccc1	-2.47
Cc1cc(=O)[nH]c(CN2CCC(c3ccccc3)CC2)n1	4.66
CC(=O)Nc1ccc(S(=O)(=O)NC(CC(=O)N(C)Cc2ccccc2)C(C)C)cc1 (centres unmarked)	15.2
COc1ccccc1NC(=O)c1ccc(NC(=O)CN2CCN(C(=O)c3ccco3)CC2)cc1	-72.9

Compound	hERG current change (%, negative = inhibition) at 10uM [%]
O=C(c1ccco1)N1CCN(Cc2cccc(C(F)(F)F)c2)CC1	-5.15
Cc1nnc(SCC(=O)NCc2ccco2)n1Cc1ccccc1	3.79
COc1ccccc1-c1ccc(SCC(=O)Nc2cc(C)on2)nn1	-17.6
COc1ccccc1Oc1ccc(N/C=C/C(=O)C(C)(C)C)cc1	6.81
CCCCN(CC)S(=O)(=O)c1ccc(C(=O)Nc2nnc(-c3ccccc3Cl)o2)cc1	8.39
O=c1c2ccccc2c(-c2ccccc2)nn1-c1cc(Cl)cc(Cl)c1	9.33
CS(=O)(=O)N(CC(=O)Nc1cccc([N+](=O)[O-])c1)c1ccccc1	7.7
Cc1ccc(C(=O)Nc2ccc(CC(=O)O)cc2)o1	-11.6
CN(C)Cc1c(C(=O)N/N=C/c2cccc3ccccc23)nnn1-c1nonc1N	-2.53
Cc1cc(C(=O)CSc2nc(N)cc(N)n2)c(C)n1-c1cccc(C(F)(F)F)c1	-64.4
Cc1ccc(O)c(NC(=O)C2CCCCC2)c1	10.5
NC(=O)[C@H]1CC2(CC(c3cccc(NC(=O)[C@H]4CCC(=O)N4)c3)=NO2)CN1C(=O)c1cc([N+](=O)[O-])cc([N+](=O)[O-])c1 (some centres unmarked)	-3.7
O=C(CS(=O)CC(=O)N(c1ccccc1)C(C(=O)NC1CCCC1)c1cccs1)Nc1ccc(F)cc1 (centres unmarked)	-3.4
CCCCSc1nc(C)cc(NC(=S)Nc2ccc(OC)cc2)n1	-25.4
C=CCn1c(SCc2ccc(C(=O)NCCO)cc2)nc2sc(C)c(C)c2c1=O	-61.6
S=c1[nH]nc(-c2cc(-c3ccccn3)nc3ccccc23)o1	12.9
CC(NC(=O)c1ccc(CS(=O)(=O)Cc2ccccc2F)o1)c1ccc2c(c1)OCCO2 (centres unmarked)	-43.3
CCC(CC)C(=O)Nc1c2c(nn1-c1ccc(OC)cc1)CS(=O)C2 (centres unmarked)	3.83
CCCS(=O)(=O)c1c(S(=O)(=O)CCC)c2c3ccccc3ccn2c1C(=O)OC	9.96
O=C(Nc1nccs1)c1cccc2ccccc12	-1.6
Cc1c(C(=O)Nc2ccc(C(F)(F)F)cc2)sc2ncn(CC(=O)N3CCN(c4ccccn4)CC3)c(=O)c12	16.4

Compound	hERG current change (%, negative = inhibition) at 10uM [%]
COc1ccc(C(=O)Nc2ccc(-c3cn4ccsc4n3)cc2)cc1S(=O)(=O)N1CCOCC1	-9.6
Cc1cccc(C(=O)Nc2cc(OCc3cccc(F)c3)c(Cl)cc2Cl)c1	-7.87
CSc1ccccc1C(=O)C1CCCN(Cc2ccccn2)C1 (centres unmarked)	-12.6
COc1cccc(-n2c(SCC#N)nnc2-c2cnccn2)c1	-9.76
C=CCc1ccccc1OCC(O)CNC (centres unmarked)	12
CC1=CC(=O)C2=C(C)CC(O)C3C(C)C(=O)OC3C12.O (centres unmarked)	-7.36
O=C(CN1CCOCC1)Nc1cccc(S(=O)(=O)N2CCCCCC2)c1	-35.3
N#CCCn1c(-c2nonc2NC(=O)c2ccccc2Cl)nc2ccccc21	-5.62
CN(C)c1ccc(S(=O)(=O)NCC(=O)OCC(=O)NC(=O)C2CCCCC2)cc1[N+](=O)[O-]	3.79
CC1CCN(C(=O)Cn2c3ccccc3c3nc4n(c(=O)c32)CCCS4)CC1	7.55
CCOc1ccc(S(=O)(=O)N(C)CCO)cc1-c1nc2c(C(C)(C)C)nn(C)c2c(=O)[nH]1	-25.6
CC(C)Cn1c(-c2ccco2)n[nH]c1=S	12.9
CCOC(=O)c1cc(CC)sc1N1C(=O)CC(Sc2ncccc2C(=O)O)C1=O (centres unmarked)	23.2
O=C(c1ccc2c(c1)OCO2)C1CCCN(C(=O)C2CCOCC2)C1 (centres unmarked)	7.74
CCCc1cc(=O)[nH]c(SCC(=O)N2CCN(c3ccccc3)CC2)n1	-12.6
COc1ccccc1N(CC(=O)NC1CCCC1)C(=O)CCC(=O)Nc1ccccn1	6.68
CCOC(=O)c1sc(C)nc1C1CCN(C(=O)OCC)CC1	6.32
COc1ccc(CN2C(=O)NC(=O)/C(=C/c3ccoc3)C2=O)cc1	-32.7
CCOc1c(C)cnc2c1c(=O)n(Cc1cccc(Cl)c1)c(=O)n2C	-36.1
CCCNC(=O)NC(=O)CSc1nc2cc(C(=O)OC)ccc2c(=O)n1-c1ccccc1	-1.66
